Measured values as given in the RNAGym collection of RNA variant scans (doi:10.1073/pnas.2313332121).
Variants at the floor of the assay are shown more often than the library holds them.

B1: TPR 5TU (parent)
chain: GGAUCUUCUCGAUCUAACAAAAAAGACAAAUCUGCCACAAAGCUUGAGAGCAUCUUCGGAUGCAGAGGCGGCAGCCUUCGGUGGCGCGAUAGCGCCAACGUUCUCAACUAUGACACGCAAAACGCGUGCUCCGUUGAAUGGAGUUUAUCAUG

Variants of: B1
Test: polymerase ribozyme fitness, log enrichment relative to wild type (log ratio); higher = more active; in vitro selection for triplet polymerase activity
Summary of the method: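 Mutant libraries were PCR-built and transcribed for each subunit of a heterodimeric triplet polymerase ribozyme and selected for one round in triplicate at −7 °C, frozen, before gel excision of extended constructs and streptavidin-bead capture. Input and output libraries were Illumina-sequenced, keeping genotypes with ≥10 input reads and ≥1 read per output. Fitness is a logarithmic ratio of genotype to wild-type enrichment, in base 2, using inverse-variance-weighted replicate averages.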

| Variant | polymerase ribozyme fitness (log ratio) |
| --- | --- |
| A21G A29U U44G C79G | ≤ -4.2 |
| A21G A28G G81U G83C | ≤ -4.2 |
| A22C G59C U78C C85A U144A A150U | ≤ -4.2 |
| A21U A23U A29C C35G G48A | ≤ -4.2 |
| A22G C51U G83A | 0.818 |
| A22G A26U C27U C38U G84U C85A U101G U139A | ≤ -4.2 |
| A21C U31A A49C U61A C93U G126U A150G | ≤ -4.2 |
| A22C G48U A60G | 0.164 |
| A21G U31G A49C C79U G86U A150G | ≤ -4.2 |
| A22C A26U C75G U135A | ≤ -4.2 |
| A21U G59C A64U G133C A142C | ≤ -4.2 |
| A21U C54A U61A C118U U135C A142U U146G | ≤ -4.2 |
| A21U A24C A26U U44G A89U A91G G128U G140C U145A | ≤ -4.2 |
| A22C G46A G84C C95U U130C | ≤ -4.2 |
| A22C G50C U104G | ≤ -4.2 |
| A21C G74A A89C U90A U109A C129G A137C G140A | ≤ -4.2 |
| A22C G84C G133U | ≤ -4.2 |
| A21U U44A C57A C63U G65A C87A | ≤ -4.2 |
| A22C C43U A49G C51A G58U C95U U139G U146G | ≤ -4.2 |
| A22C C32G G48U U56A G100A | ≤ -4.2 |
| A21U G50C U55A A73G C96U A120C | ≤ -4.2 |

| Variant | polymerase ribozyme fitness (log ratio) |
| --- | --- |
| A21U A28C A40U A60U C63A A66C G94U C116U G133C G140C | ≤ -4.2 |
| A21U C95U C99U | -0.768 |
| A21U A24C A41C A47G C63A G68A U145G | ≤ -4.2 |
| A22C G46A G59C A91C C99G U101G C116G A138C | ≤ -4.2 |
| A21U A49C C99A G100C C118A | ≤ -4.2 |
| A21U G68A C85G | ≤ -4.2 |
| A21U A23G C27U G62C C93G U148G | ≤ -4.2 |
| A21U A23U C54U G58A G92U | ≤ -4.2 |
| A21U A30U G62A G83A A107G A120U U134C G140U | ≤ -4.2 |
| A21U U82G C93G | -3.69 |
| A22C A26C A30G A37U U55A A66G G84C C85A C129G U148C | ≤ -4.2 |
| A21G A23G A30G G68A G71C C76A U77A G92U C93U A97G | ≤ -4.2 |
| A21C G48A G92U C125A U146G C149G | ≤ -4.2 |
| A21C G68A C114U U144G | ≤ -4.2 |
| A22G A66G A73G C96A A97G G124U U134C | ≤ -4.2 |
| A21G A47U G59U C76A C123U | ≤ -4.2 |
| A21U C27G C38U U56A G71A C99A U139A A147C | ≤ -4.2 |
| A21C U53C A66G A121U G136U | ≤ -4.2 |
| A21U C54U C63U G68A A73G C93G C108G U148G | ≤ -4.2 |
| A21C U61G C93G A98U A138C | ≤ -4.2 |
| A22C A60C G88C | ≤ -4.2 |

| Variant | polymerase ribozyme fitness (log ratio) |
| --- | --- |
| A21G G92C C95A C129A U130G | ≤ -4.2 |
| A22C G25C G92C U127G A138G | ≤ -4.2 |
| A21G C51A C76G G83A A98U C116A G141A C149A | ≤ -4.2 |
| A21G G48U C87G | ≤ -4.2 |
| A22C A39C U44G G46C C76U A107G A121U | ≤ -4.2 |
| A22C U55A G124A A137C U144A | ≤ -4.2 |
| A21U C27G A41G A60G C103U | ≤ -4.2 |
| A21G C32A C51U G84A G92C | ≤ -4.2 |
| A22G C27G C38U A47C G86A A121U G143U | ≤ -4.2 |
| A22G A23U A40C U77C C85A U134A G143A | ≤ -4.2 |
| A21U A37C A41C A60G A107G | ≤ -4.2 |
| A22G A29G C75U A89U C93U C103U | ≤ -4.2 |
| A22C G25U C38U A91C C105U C118U | ≤ -4.2 |
| A21U U33G U55A G92A U135A | ≤ -4.2 |
| A21G C87A A113U G141A U146C | ≤ -4.2 |
| A22C C57U C75A U78G A91U A119C A121G | ≤ -4.2 |
| A21G G59C U77G | ≤ -4.2 |
| A22C C51G G80C | ≤ -4.2 |
| A21U A91C | ≤ -4.2 |
| A21G U45A C79U U82A C85U A89U G140U | ≤ -4.2 |
| A21G G59C U77G A89U A122G U135G | ≤ -4.2 |

| Variant | polymerase ribozyme fitness (log ratio) |
| --- | --- |
| A21U C36A C118G U139C U146C | ≤ -4.2 |
| A21U C69A G126U G140U U145G | ≤ -4.2 |
| A21G C132G | -3.9 |
| A22G C51G A91U G94U U144C | ≤ -4.2 |
| A21G U33G U44A G59A A60U G84A C87G U90A U111G G136U | ≤ -4.2 |
| A21U U77A C96U G143U U146G | ≤ -4.2 |
| A22C C87U C131A U139G | ≤ -4.2 |
| A21U A47C C69G U90C U135A A137G | ≤ -4.2 |
| A21U A30G A47G U53A G94U G124U U144C | ≤ -4.2 |
| A21G G42A G50C C93G G136U | ≤ -4.2 |
| A21U U33C C35G U146A | ≤ -4.2 |
| A21U G84A A89G | -1.44 |
| A21G C51U G59A C85G A137U | ≤ -4.2 |
| A21U C35G U55A A120U G141C | ≤ -4.2 |
| A21G C51G U56A A73C C96G A119U A120G C123G | ≤ -4.2 |
| A21G A40C A49G A73G U90G C93G G94C C118A G126A | ≤ -4.2 |
| A22C A91G C123U G140C U151G | ≤ -4.2 |
| A21G G42U C96U G136U | ≤ -4.2 |
| A21G G141A | 1.12 |
| A22C C32A C36U G58C G62U C99U A121G G133A A142C | ≤ -4.2 |
| A21G G62A A64U C116G | ≤ -4.2 |
